Experimental data from the supplement of paper PMC3334620.
In all, about 33,000 sequences were measured (“E-score (-0.5 to 0.5)”: median about -0.011, highest 2% from about 0.28 on). This is one part of the list.

molecular target: T1, Gcr1 (UniProt P07261); assay: PBM E-score (8-mer binding enrichment) (E-score (-0.5 to 0.5)); higher = stronger / more preferred TF binding; most listed sequences are background and not binding sites; conditions: protein concentration: 100 nM; construct: GST-full length
T1 sequence: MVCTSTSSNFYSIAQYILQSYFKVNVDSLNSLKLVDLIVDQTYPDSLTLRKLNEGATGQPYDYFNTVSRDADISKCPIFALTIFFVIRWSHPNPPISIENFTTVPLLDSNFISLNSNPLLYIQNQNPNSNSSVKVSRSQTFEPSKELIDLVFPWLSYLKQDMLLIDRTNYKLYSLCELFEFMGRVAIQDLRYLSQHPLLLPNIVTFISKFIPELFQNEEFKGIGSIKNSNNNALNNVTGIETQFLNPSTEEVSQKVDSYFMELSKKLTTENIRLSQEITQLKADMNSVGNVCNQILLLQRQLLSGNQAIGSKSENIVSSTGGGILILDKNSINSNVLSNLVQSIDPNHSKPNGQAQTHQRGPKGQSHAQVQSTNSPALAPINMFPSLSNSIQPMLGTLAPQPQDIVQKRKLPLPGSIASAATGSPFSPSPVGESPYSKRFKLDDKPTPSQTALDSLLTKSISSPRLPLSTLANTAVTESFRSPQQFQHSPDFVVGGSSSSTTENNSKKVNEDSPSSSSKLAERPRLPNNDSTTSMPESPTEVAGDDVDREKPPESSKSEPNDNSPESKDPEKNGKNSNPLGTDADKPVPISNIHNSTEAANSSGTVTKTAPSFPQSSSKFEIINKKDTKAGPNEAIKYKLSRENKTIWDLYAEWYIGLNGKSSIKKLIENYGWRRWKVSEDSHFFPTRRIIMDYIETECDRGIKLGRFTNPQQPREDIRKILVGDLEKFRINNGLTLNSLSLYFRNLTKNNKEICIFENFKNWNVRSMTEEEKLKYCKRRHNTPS
Method in brief: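 Universal all-10-mer Agilent arrays, double-stranded by primer extension on fresh or once-stripped slides, were probed with about 100-200 nM GST-tagged yeast transcription factors made by PURExpress. Fluorescent anti-GST detected bound protein, and masliner normalised the scans. E-scores from the Universal PBM Analysis Suite were given to each ungapped eight-base word pooled with its reverse complement.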

Sequence | PBM E-score
ATCCAGCG | -0.0568
AGGGTACT | -0.0947
CTAGTATA | -0.0145
ATTCGGAA | 0.169
ACGAACCT | -0.0495
CGCACAAA | -0.108
TAGACATA | -0.0526
AGACTCAT | -0.0313
ACTCAGAG | -0.204
GGTGCGGA | 0.0902
AACTACAA | 0.102
AGTTCCGG | 0.0853
GCCTTACC | -0.167
AATGATGT | 0.0872
TGAGTCCA | 0.146
GAAGCCTC | 0.283
GCACCGTA | 0.211
ACTCGGTG | -0.127
CCTACTGA | -0.0359
ACACGGAG | -0.0209
CTCTTTCC | -0.057
CAGACAAC | 0.0134

Sequence | PBM E-score
ATGTAACC | -0.0526
GGTCCCGA | 0.182
CGCGCTAC | 0.0811
GCCGGATA | 0.0288
GGGTTTCA | -0.0174
TGTCAACA | -0.0103
AAACTTGG | -0.0181
ATAGCCTC | -0.0329
AAGACTCC | 0.0934
ACTAGCCA | -0.285
CGGGTGTC | -0.116
AGCGCCTA | 0.164
CAGCTTTA | 0.0159
CTATTACA | 0.148
AAGGGTCC | -0.0768
GTGGACAA | -0.0286
CGAGTGTC | -0.111
GAACCTCA | -0.00628
ACTGGTGG | 0.109
GGGTCGGA | -0.0653
GAAGTACA | -0.253
AAAGGAGC | 0.126

Sequence | PBM E-score
CACGCTAC | 0.0035
CGATCGCC | -0.139
CCAGCTAC | 0.274
AACGTCCC | -0.159
TAAGCCCA | 0.105
GATCCTTA | 0.012
GAACTCTC | -0.213
AATACGGT | 0.0331
GGGTGGGA | 0.189
AGAAGGCG | 0.114
CTGGATCC | 0.346
CTGTGACC | -0.219
GCGCCTAC | 0.256
CCGCCGTA | 0.108
GAGGAACA | -0.193
CCCCCCAA | -0.0669
CCCGTGGA | -0.00158
ATTACTTG | -0.128
ATGCGCTG | 0.0449
ACACGCAT | 0.197
CACCAAAC | 0.0123
CGCCACGC | -0.154

Sequence | PBM E-score
CCTTGGTC | -0.192
CTATAGAG | 0.096
AAAAGCTC | -0.072
CGTGTAAA | 0.138
TAGCAAAA | 0.019
CCTAGACC | -0.0274
CTACCATA | -0.0829
GTGACCAC | 0.0824
AACCAGGA | 0.0936
ACCAGTTG | 0.0739
AATCTTTA | -7e-05
CCCGGTAA | 0.126
ACTACTAA | 0.115
AACTCTAT | -0.0936
AAATTCGT | 0.103
TCCCTGAA | 0.0528
CTAGTCTA | 0.116
AAGTGTAT | -0.186
CTCGATAC | 0.116
CCTAGAAA | 0.104
